According to ChEMBL document CHEMBL1201862, “PubChem BioAssay data set” (2004):

Test system: NCI-H322M
Assay: inhibition of tumour cell growth, NCI panel, 48 h

SMILES	GI50
CCOC(=O)c1nc2cc(C(F)(F)F)ccc2nc1Oc1ccc(C(=O)OC)cc1	inactive: > 100 µM
COC(=O)C(=O)C(C(=O)C(=O)Nc1ccccc1OC)c1nc2ccc([N+](=O)[O-])cc2nc1O (centres undefined)	inactive: 79.8 µM
CCCc1c2c3ccccc3nc-2nc2ccccn12	inactive: 33.9 µM
Nc1ccc(-c2nc3ccc(Cc4ccc5nc(-c6ccc(N)cc6)oc5c4)cc3o2)cc1	inactive: > 100 µM
[O-][n+]1nc(N2CCOCC2)nc2ccccc21	inactive: > 100 µM
CC[N+]1(C)CCC(O)(c2ccc(Cl)cc2)C(C(=O)c2ccc(Cl)cc2)C1 (centres undefined)	inactive: 23.1 µM
OC(COc1cccc2ccccc12)CN1CCOCC1 (centres undefined)	inactive: > 100 µM
C[C@]12[C@@H]3CC[C@H]1[C@@H](OC(=O)Nc1cc([N+](=O)[O-])cc([N+](=O)[O-])c1)C(=O)N2CC3	inactive: > 100 µM
CCC(=O)C(C(=O)CC)c1c(OC(=O)c2ccccc2)ccc(O)c1C(=O)OC	inactive: > 100 µM
COC(=O)CP1(=O)OC2C(C3CCC2(C)C3(C)C)N1c1cc(C(F)(F)F)cc(C(F)(F)F)c1 (centres undefined)	inactive: 31.1 µM
CCc1ccc2c(c1)/C(=C1/Nc3ccccc3C1=O)C(=O)N2	inactive: 9.1 µM
COC(=O)C(Cc1nc2ccccc2nc1O)C(=O)C(=O)Nc1ccc([N+](=O)[O-])cc1[N+](=O)[O-] (centres undefined)	inactive: 35.3 µM
Cc1cc(/N=C/c2ccc(F)cc2)n(-c2ccccc2)n1	inactive: > 100 µM
CC(=O)OC(/C=C1/C=CC(=O)O1)COC(=O)c1ccccc1 (centres undefined) [ACETYLMELODORINOL]	inactive: > 31.2 µM
O=c1[nH]c(=S)[nH]c2c(C3OC(CO)C(O)C3O)nsc12 (centres undefined)	inactive: > 100 µM
Cc1cc(NS(=O)(=O)c2ccc(Nc3c4ccccc4nc4ccc(C(=O)Nc5ccc(S(=O)(=O)N=C(N)N)cc5)cc34)cc2)no1	inactive: > 100 µM
Cc1c(/C=N/NC(=O)c2cc(Br)cc(Br)c2O)c(=O)n(-c2ccccc2)n1C	inactive: 62.2 µM
COc1cccc(C2c3cc4c(cc3OC(N3CCCC3)C2C)OCO4)c1O (centres undefined)	inactive: 7.48 µM
O=C(CCc1cc(-c2ccccc2)[nH]c(=S)n1)Nc1ccccc1[N+](=O)[O-]	inactive: > 100 µM
CNC(=O)NCCCCC(NC(=O)OCc1ccccc1)C(=O)OCc1ccccc1 (centres undefined)	inactive: 47.3 µM
O=S1(=O)C(c2ccccc2)C(N2CCCCC2)C1C1CC2c3ccccc3C1c1ccccc12 (centres undefined)	inactive: > 100 µM
O=C1CSC(c2cc3cc(Br)ccc3nc2Cl)N1c1ccc(Cl)cc1 (centres undefined)	inactive: 44.2 µM

SMILES	GI50
Cc1ccc(N2C(=O)C(O)=C(C(=O)C(C)(C)C)C2c2ccc([N+](=O)[O-])cc2)cc1 (centres undefined)	inactive: 25 µM
C=C(c1nc2ccc(Cl)cc2[nH]c1=O)C(O)c1ccc(C(O)C(=O)c2nc3ccc(Cl)cc3[nH]c2=O)cc1 (centres undefined)	inactive: > 100 µM
CCOC(=O)NC(=O)c1cn(CCN2CCN(C(=O)NCCCCCCNC(=O)N3CCN(CCn4cc(C(=O)NC(=O)OCC)c(=O)n(CCN(CC)CC)c4=O)CC3)CC2)c(=O)n(CCC(CC)CC)c1=O	inactive: > 100 µM
N=C(N)SCc1cccc2c(=O)cc(-c3ccccc3)oc12	inactive: 11.3 µM
CCCCCCOP(=O)(OCCCCCC)OC(C(=O)OC)C(F)(F)F (centres undefined)	inactive: > 100 µM
O=C(c1ccccc1)N1C2CCC1C(C(F)(F)F)=C2C(F)(F)F	inactive: > 100 µM
O=S(=O)(Oc1ccc2ccccc2c1-c1c(OS(=O)(=O)C(F)(F)F)ccc2ccccc12)C(F)(F)F	inactive: > 100 µM
c1ccc(/C(=N\Nc2nc3ccccc3[nH]2)c2ccccn2)cc1	active: 0.372 µM
O=C(O)c1cccc(C(=O)O)c1[S+]([O-])Cc1ccccc1 (centres undefined)	inactive: > 100 µM
COc1cc(OC)c2c(=O)c(OC)c(-c3ccc4c(c3)OCO4)oc2c1	inactive: 69.8 µM
CC(C)(C)c1cc(COc2c3sc(=S)sc3c(OCc3cc(C(C)(C)C)cc(C(C)(C)C)c3)c3sc(=S)sc23)cc(C(C)(C)C)c1	inactive: > 100 µM
CC(=O)c1cc(I)c(O)c2ncccc12	inactive: 5.16 µM
CC1(C)C(=O)N=C(N)N1C(=O)OCc1ccccc1	inactive: > 100 µM
NS(=O)(=O)c1ccc(NS(=O)(=O)c2ccc(NC(=O)N(c3ccccc3)c3ccccc3)cc2)cc1	inactive: > 100 µM
Cc1c(CNc2ccc(C(=O)NC(CCCNC(=O)c3ccccc3C(=O)O)C(=O)O)cc2)cnc2nc(N)nc(N)c12 (centres undefined)	active: 0.00156 µM
O=c1ccccc2cccc(O)c12	inactive: > 100 µM
Cc1ccc(N(C(=O)CC(=O)NN)C(=O)c2ccccc2Cl)cc1	inactive: > 100 µM
CN(C)C1C(=O)C(C(N)=O)=C(O)C2(O)C(O)=C3C(=O)c4c(O)cccc4C(C)(O)C3CC12 (centres undefined)	inactive: > 100 µM
CC1CCC(=O)NCCCCC(=O)N1 (centres undefined)	inactive: > 100 µM
C/C(Cl)=N/OC(=O)Nc1ccc(F)c([N+](=O)[O-])c1	inactive: 21.7 µM
CCCCCCC(=O)OC[n+]1ccc2c(C)c3[nH]c4ccccc4c3c(C)c2c1	active: 0.802 µM
c1ccc(/C(=N/Nc2nc3ccccc3s2)C2CCCCC2)nc1	inactive: 5.86 µM

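Where inhibition never reached the appropriate level, the endpoint shown equals the highest concentration tested. Otherwise, values were interpolated linearly from a five-concentration, 48-hour dose response in 96-well plates. GI50 = concentration required for 50% inhibition of growth.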 The source made the active and inactive calls. Rule as the data show it: active = GI50 up to about 1.1 µM and inactive = higher.
